Source: publication PMC12136788
Some of the results follow.

T1: UNK ZnF1-3 (human, UniProt Q9C0B0 31-174)
T1 sequence: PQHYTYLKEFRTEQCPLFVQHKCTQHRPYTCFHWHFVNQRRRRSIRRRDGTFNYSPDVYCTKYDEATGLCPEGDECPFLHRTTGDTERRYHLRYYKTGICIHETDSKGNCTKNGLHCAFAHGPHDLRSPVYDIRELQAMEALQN

B1: chr7:149068622:149068623:-_ENSMUSG00000025139_ENSMUST00000001950|mus_hu|mus_mus_mus_hu_False|98_98 (ssRNA)
RNA: GGGAGUUCUACAGUCCGACGAUCGUGAGGCCUCUGAGUGAGGUUCCUGGUCUGUCCUGGGUUAGAGUUGUUAAUAUCACGGAACAUACCAUCUAGAACGUUCCAGUCCCGCCUGACACCUUCAUUCCCAAUGGAGAAGAAAUCCAACAGAGGAUUGAGCAUCA
B2: chr7:141438946:141438947:+_ENSG00000106028_ENST00000265304|hu_mus|hu_hu_hu_mus_True|78_98 (ssRNA)
RNA: GGGAGUUCUACAGUCCGACGAUCGACGAAAUACCUGACAGGUCUUCCUUCGAAACAUUCUAUUUUCUUUUCUUACAACCUAAUCUUUAGGCUUUUCCUAAAGGAAAGAAAGAAAAGAGAAAAAUGAUAAAUCAAGAAACUACACAACAGAGGAUUGAGCAUCA
B3: chr7:65705844:65705845:+_ENSG00000169902_ENST00000304842|hu_mus|hu_hu_hu_mus_False|68_78 (ssRNA)
RNA: GGGAGUUCUACAGUCCGACGAUCAAACGGAUCUUUGUUACAUAAAUAAGGUGCCGGCUCCCCAUGCUUAACGAUAACCUCCAGAAGGAAGGCUUGCAUGGCAGAAUCUAGCACUUCAUCUGUGACACCCGCCUCAUCCAAGCGCAACAGAGGAUUGAGCAUCA
B4: chr12:67699843:67699844:+_ENSG00000111530_ENST00000544619|hu_hu|motif|central (ssRNA)
RNA: GGGAGUUCUACAGUCCGACGAUCAAUAAACUGACCUACUACAGCUGGUCCCUCUUUAGGGCAUGCUCGAGUAAGGGCAGCGGCACAUUUGGCAAUGGAAUAAUAAGACUGCUUAUGAGUAAGAGCUGUGCUCUGAGAGUAAACCAACAGAGGAUUGAGCAUCA
B5: 76201617_76211542_1531_CDS_ENSG00000119685_ENST00000298832|human|control|control (ssRNA)
RNA: GGGAGUUCUACAGUCCGACGAUCUGACAGACCAAGCACAGAACCACCCAACUUCCCUGGCCCUUUCUCCCGGGCUGAGCCCACGAGGUUUUUCAUUUCCGCAUCACUGGCAGAGAGUGGACGGCAACGCUGAGGUUUCUGGAACAACAGAGGAUUGAGCAUCA
B6: 36865624_36867664_294_3pUTR_ENSMUSG00000029192_ENSMUST00000171385|mouse|control|control (ssRNA)
RNA: GGGAGUUCUACAGUCCGACGAUCUUGAGCUUCUUCAGCUGGCUUGGCUGGGAGAUUUGCAGGUCUGUCCUCGAGGAUGAGCGCCGUGGUGGACAGUGGCUCAAAAUCCAGGUUCUUCCUCACAUUCUGCUUGGGAGAGGGUGGCAACAGAGGAUUGAGCAUCA

molecular target: T1, UNK ZnF1-3; experiment: nsRBNS (natural sequence RNA bind-n-seq); RBNS binding buffer (assumed for nsRBNS): 25 mM Tris pH 7.5, 150 mM KCl, 3 mM MgCl2, 0.01% Triton X-100, 500 ug/ml BSA, 20 U/ml SUPERase-In, 4 C; UNK is unkempt and MSI1 is Musashi-1; names of the RNAs are library labels; protein concentration not given here; high values mean tight binding

Binder	binding signal [enrichment R]
B1	0.723
B2	0.31
B3	0.299
B4	1.22
B5	1.82
B6	1.36
